# Results as given in paper PMC9911399, “Two distinct binding modes provide the RNA-binding protein RbFox with extraordinary sequence specificity”.
# Numbering of substitutions follows the chain as printed; changes in the protein carry UniProt numbers. This is one part of the list.
# T1: RBFOX1 RRM RbFoxmut (Fox-RRM*) (Homo sapiens, UniProt Q9NWB1 109-208, R118D;E147R;N151S;E152T)
# T1 sequence: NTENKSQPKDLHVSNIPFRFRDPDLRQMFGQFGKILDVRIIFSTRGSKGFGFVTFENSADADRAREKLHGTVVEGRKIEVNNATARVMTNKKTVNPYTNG
# B1: AGGCUUG (DNA:RNA)
# RNA: GGGAGACCGGAAUUCAGAUUGUCCAGGCUUGUUAAAUCCCGUCGUAGCCACCA
# DNA 1: CAATCTGAATTCCGGTCTCCC
# DNA 2: TGGTGGCTACGACGGGATT
# B2: UUCGGCG (DNA:RNA)
# RNA: B1 RNA with A25U, G26U, G27C, C28G, U29G, U30C
# DNA 1: CAATCTGAATTCCGGTCTCCC
# DNA 2: TGGTGGCTACGACGGGATT
# B3: GAGUUUC (DNA:RNA)
# RNA: B1 RNA with A25G, G26A, C28U, G31C
# DNA 1: CAATCTGAATTCCGGTCTCCC
# DNA 2: TGGTGGCTACGACGGGATT
# B4: ACAGCGC (DNA:RNA)
# RNA: B1 RNA with G26C, G27A, C28G, U29C, U30G, G31C
# DNA 1: CAATCTGAATTCCGGTCTCCC
# DNA 2: TGGTGGCTACGACGGGATT
# B5: GUGAGCG (DNA:RNA)
# RNA: B1 RNA with A25G, G26U, C28A, U29G, U30C
# DNA 1: CAATCTGAATTCCGGTCTCCC
# DNA 2: TGGTGGCTACGACGGGATT
# B6: UACGACC (DNA:RNA)
# RNA: GGGAGACCGGAAUUCAGAUUGUCCUACGACCUUAAAUCCCGUCGUAGCCACCA
# DNA 1: CAATCTGAATTCCGGTCTCCC
# DNA 2: TGGTGGCTACGACGGGATT
# B7: CUCGUAC (DNA:RNA)
# RNA: B6 RNA with U25C, A26U, A29U, C30A
# DNA 1: CAATCTGAATTCCGGTCTCCC
# DNA 2: TGGTGGCTACGACGGGATT
# B8: AGCGUGA (DNA:RNA)
# RNA: B1 RNA with G27C, C28G, U30G, G31A
# DNA 1: CAATCTGAATTCCGGTCTCCC
# DNA 2: TGGTGGCTACGACGGGATT
# B9: AUUUCAU (DNA:RNA)
# RNA: B1 RNA with G26U, G27U, C28U, U29C, U30A, G31U
# DNA 1: CAATCTGAATTCCGGTCTCCC
# DNA 2: TGGTGGCTACGACGGGATT
# B10: AGGUGCA (DNA:RNA)
# RNA: B1 RNA with C28U, U29G, U30C, G31A
# DNA 1: CAATCTGAATTCCGGTCTCCC
# DNA 2: TGGTGGCTACGACGGGATT
# B11: UGUGAAC (DNA:RNA)
# RNA: B6 RNA with A26G, C27U, C30A
# DNA 1: CAATCTGAATTCCGGTCTCCC
# DNA 2: TGGTGGCTACGACGGGATT
# B12: CGGCUUG (DNA:RNA)
# RNA: B1 RNA with A25C
# DNA 1: CAATCTGAATTCCGGTCTCCC
# DNA 2: TGGTGGCTACGACGGGATT
# B13: CGUUUCG (DNA:RNA)
# RNA: B1 RNA with A25C, G27U, C28U, U30C
# DNA 1: CAATCTGAATTCCGGTCTCCC
# DNA 2: TGGTGGCTACGACGGGATT
# B14: GCCUGGC (DNA:RNA)
# RNA: B6 RNA with U25G, A26C, G28U, A29G, C30G
# DNA 1: CAATCTGAATTCCGGTCTCCC
# DNA 2: TGGTGGCTACGACGGGATT
# B15: UCGGACU (DNA:RNA)
# RNA: B6 RNA with A26C, C27G, C31U
# DNA 1: CAATCTGAATTCCGGTCTCCC
# DNA 2: TGGTGGCTACGACGGGATT
# B16: UCGUCAU (DNA:RNA)
# RNA: B1 RNA with A25U, G26C, C28U, U29C, U30A, G31U
# DNA 1: CAATCTGAATTCCGGTCTCCC
# DNA 2: TGGTGGCTACGACGGGATT
# B17: AAUGCUA (DNA:RNA)
# RNA: B1 RNA with G26A, G27U, C28G, U29C, G31A
# DNA 1: CAATCTGAATTCCGGTCTCCC
# DNA 2: TGGTGGCTACGACGGGATT
# B18: AUAUAAG (DNA:RNA)
# RNA: B1 RNA with G26U, G27A, C28U, U29A, U30A
# DNA 1: CAATCTGAATTCCGGTCTCCC
# DNA 2: TGGTGGCTACGACGGGATT
# B19: GGUAGAA (DNA:RNA)
# RNA: B1 RNA with A25G, G27U, C28A, U29G, U30A, G31A
# DNA 1: CAATCTGAATTCCGGTCTCCC
# DNA 2: TGGTGGCTACGACGGGATT
# B20: CAUAGAC (DNA:RNA)
# RNA: B6 RNA with U25C, C27U, G28A, A29G, C30A
# DNA 1: CAATCTGAATTCCGGTCTCCC
# DNA 2: TGGTGGCTACGACGGGATT
# B21: CAUAUGU (DNA:RNA)
# RNA: B1 RNA with A25C, G26A, G27U, C28A, U30G, G31U
# DNA 1: CAATCTGAATTCCGGTCTCCC
# DNA 2: TGGTGGCTACGACGGGATT
# B22: AAAUCAU (DNA:RNA)
# RNA: B1 RNA with G26A, G27A, C28U, U29C, U30A, G31U
# DNA 1: CAATCTGAATTCCGGTCTCCC
# DNA 2: TGGTGGCTACGACGGGATT
# B23: GUGGCGA (DNA:RNA)
# RNA: B1 RNA with A25G, G26U, C28G, U29C, U30G, G31A
# DNA 1: CAATCTGAATTCCGGTCTCCC
# DNA 2: TGGTGGCTACGACGGGATT
# B24: AGGUUAC (DNA:RNA)
# RNA: B1 RNA with C28U, U30A, G31C
# DNA 1: CAATCTGAATTCCGGTCTCCC
# DNA 2: TGGTGGCTACGACGGGATT
# B25: UAUACCA (DNA:RNA)
# RNA: B6 RNA with C27U, G28A, A29C, C31A
# DNA 1: CAATCTGAATTCCGGTCTCCC
# DNA 2: TGGTGGCTACGACGGGATT
# B26: UAGGUCG (DNA:RNA)
# RNA: B6 RNA with C27G, A29U, C31G
# DNA 1: CAATCTGAATTCCGGTCTCCC
# DNA 2: TGGTGGCTACGACGGGATT
# B27: AGGGCCU (DNA:RNA)
# RNA: B1 RNA with C28G, U29C, U30C, G31U
# DNA 1: CAATCTGAATTCCGGTCTCCC
# DNA 2: TGGTGGCTACGACGGGATT
# B28: UGAGAGA (DNA:RNA)
# RNA: B6 RNA with A26G, C27A, C30G, C31A
# DNA 1: CAATCTGAATTCCGGTCTCCC
# DNA 2: TGGTGGCTACGACGGGATT
# B29: AUCUCAA (DNA:RNA)
# RNA: B1 RNA with G26U, G27C, C28U, U29C, U30A, G31A
# DNA 1: CAATCTGAATTCCGGTCTCCC
# DNA 2: TGGTGGCTACGACGGGATT
# B30: AAUCUUC (DNA:RNA)
# RNA: B1 RNA with G26A, G27U, G31C
# DNA 1: CAATCTGAATTCCGGTCTCCC
# DNA 2: TGGTGGCTACGACGGGATT
# B31: CGAGGGA (DNA:RNA)
# RNA: B1 RNA with A25C, G27A, C28G, U29G, U30G, G31A
# DNA 1: CAATCTGAATTCCGGTCTCCC
# DNA 2: TGGTGGCTACGACGGGATT
# Target: T1, RBFOX1 RRM RbFoxmut (Fox-RRM*)
# Assay: EMSA; HiTS-Eq, 1 nM pool, 10 min; buffer printed only for the single-RNA assays: 10 mM Tris pH 7.5, 150 mM NaCl, 3.4 mM EDTA, 0.001% NP-40, 30 C
# Conditions: tags: His6 N-terminal (pET28a); label: 5' 32P
# In short: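 A pool of RNA with 7 randomized nucleotides, 5′-radiolabelled and with DNA-annealed flanks, was equilibrated at 1 nM for 10 min in 50 µL with purified RbFox RRM, wild type or mutant, across increasing protein concentrations. Free RNA was separated by 8% native PAGE, excised, reverse-transcribed, barcoded by PCR and sequenced. Relative association constants were obtained from read-count changes of each RNA species versus the control reaction and normalised to the cognate motif.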
row,Binder,binding signal
1,B1,0.388 KA relative to UGCAUGU
2,B2,0.116 KA relative to UGCAUGU
3,B3,0.092 KA relative to UGCAUGU
4,B4,0.0911 KA relative to UGCAUGU
5,B5,0.195 KA relative to UGCAUGU
6,B6,0.0802 KA relative to UGCAUGU
7,B7,0.13 KA relative to UGCAUGU
8,B8,0.106 KA relative to UGCAUGU
9,B9,0.12 KA relative to UGCAUGU
10,B10,0.21 KA relative to UGCAUGU
11,B11,0.112 KA relative to UGCAUGU
12,B12,0.431 KA relative to UGCAUGU
13,B13,0.17 KA relative to UGCAUGU
14,B14,0.161 KA relative to UGCAUGU
15,B15,0.0516 KA relative to UGCAUGU
16,B16,0.0967 KA relative to UGCAUGU

row,Binder,binding signal
1,B17,0.115 KA relative to UGCAUGU
2,B18,0.155 KA relative to UGCAUGU
3,B19,0.0914 KA relative to UGCAUGU
4,B20,0.0851 KA relative to UGCAUGU
5,B21,0.149 KA relative to UGCAUGU
6,B22,0.08 KA relative to UGCAUGU
7,B23,0.116 KA relative to UGCAUGU
8,B24,0.104 KA relative to UGCAUGU
9,B25,0.0844 KA relative to UGCAUGU
10,B26,0.149 KA relative to UGCAUGU
11,B27,0.0732 KA relative to UGCAUGU
12,B28,0.0993 KA relative to UGCAUGU
13,B29,0.0984 KA relative to UGCAUGU
14,B30,0.0781 KA relative to UGCAUGU
15,B31,0.0693 KA relative to UGCAUGU
